# Measured values published in the supplement of paper PMC7726561.
# The full ranking holds about 1,400 sequences; the median of “thermal melting temperature (Tm) of peptide-HLA complex” is about 60, and the lowest 2% start at about 45. The list shows a part of the results.
# Target: HLA-B*07:02
# Assay: thermal melting temperature (Tm) of peptide-HLA complex; higher = more thermostable pHLA complex
# Conditions: C1R-B*07:02
# 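Note: cell lysates heated 10 min at 37–73 °C, remaining pHLA pulled down with pan-class I antibody, peptides quantified by DIA-MS versus 37 °C, Tm where half the complex is lost.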
row,Sequence,thermal melting temperature
1,WPHDTIGSL,62.1 °C
2,SPYPGLRLI,61.8 °C
3,RPKPSSSPVIF,60.6 °C
4,TARPQSSAL,58 °C
5,EPRPPHGEL,55.7 °C
6,SPFQSSPLSL,61.5 °C
7,LPTLPRGLF,60.6 °C
8,SPANTRYLFL,62 °C
9,NPSKKYNIL,59.8 °C
10,KPGPPQLSV,57.7 °C
11,GPRLPWTRL,57.9 °C
12,ITAPPSRVL,58.4 °C
13,RPAPALAPA,55.5 °C
14,APREHPFVL,61 °C
15,SPFLPGFSQSL,52.3 °C
16,TPKKTTPIL,54.6 °C
17,NPAENFRVL,56.1 °C
18,SPAFSTRVL,60.3 °C
19,KPRQQQDLVAF,53.5 °C

row,Sequence,thermal melting temperature
1,RPTSTIWVSM,59.9 °C
2,AANPNRFITL,61.1 °C
3,GPAPVGRFF,61.5 °C
4,KPNANRIALDF,61.1 °C
5,NPEINKAVL,46.1 °C
6,IPLLGKSSL,61.9 °C
7,LPSRKLVAL,61.6 °C
8,SPQGPGALF,62.5 °C
9,RPQIHGYDL,59.9 °C
10,RPTLLWSL,63.4 °C
11,LPSDLRTISL,62.7 °C
12,LPQYRLISI,61.3 °C
13,QPRLMEPIYL,57.4 °C
14,APSNPPAHL,53 °C
15,LIRPVSASF,61 °C
16,SPRSSDLVKL,57.6 °C
17,RPAQTTVLI,52.9 °C
18,QPAPAPLLF,59.9 °C
19,GPLPRAAAL,59.1 °C

row,Sequence,thermal melting temperature
1,APSAARELSL,62.9 °C
2,FPRAPSTSDSV,57.1 °C
3,APYSRPKQL,61.5 °C
4,APSEYRYTLL,64.3 °C
5,KPQPHSGSVL,56 °C
6,GPGLSRTGVEL,55.7 °C
7,YLRPPNTSL,60.1 °C
8,QPFFQKRSEL,60 °C
9,QPSSFRSVIGL,61.8 °C
10,GPRAPSPTKPL,57.7 °C
11,NPRLNILDTL,51.2 °C
12,APSGSLAVPL,63.5 °C
13,LPTSPGPAL,40.6 °C
14,QPNPLPLRL,61.2 °C
15,NPDAALRAL,54.5 °C
16,LPRGMQPTEF,60.8 °C
17,LPRKPSVPW,59.5 °C
18,FPAFPRAQV,62.3 °C
